“And” between values parts separate entries of the source, which are not always exact repeats. Equal entries are not always repeated. Structures can show the parent of a compound that is named as a salt. Out of some 5,800 compounds screened, about 620 (11%) showed activity.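 The calls were made as follows: active = score above a cut-off or among the top three wells of a plate; in these data no inactive exceeds 0.85.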 The entries are a selection whose mix differs from that of the whole data set.
System: primary human hepatic stellate cells (donor 1)
Assay: scaled lipid accumulation score (0 = DMSO-like, 1 = nortriptyline-like); higher = stronger HSC inactivation (lipid re-accumulation), active = hit call of the paper
Details: 48 h
[1] = library stock concentration: 10 mM
[2] = library stock concentration: 3.33 mM
[3] = library stock concentration: 1 mM

## CC1=NN(c2ccccc2)C(=O)C1
[1]
  scaled lipid accumulation score: inactive: ≤ 0

## CC1=NN(c2ccccc2)C(=O)C1 [Edaravone]
[2]
  scaled lipid accumulation score: inactive: ≤ 0
[1]
  scaled lipid accumulation score: inactive: ≤ 0

## C[n+]1c2cc(N)ccc2cc2ccc(N)cc21 [Acriflavinium hydrochloride]
Library stock concentration: 7.7 mM
  scaled lipid accumulation score: inactive: ≤ 0
[1]
  scaled lipid accumulation score: inactive: ≤ 0

## CO[C@H]1/C=C\C=C(/C)C(=O)NC2=CC(=O)C(NCCN(C)C)=C(C[C@@H](C)C[C@H](OC)[C@H](O)[C@@H](C)/C=C(\C)[C@@H]1OC(N)=O)C2=O [17-DMAG (Alvespimycin) HCl]
[2]
  scaled lipid accumulation score: inactive: 0.404

## COc1ccc(/C=C/c2ccccc2F)cc1
[3]
  scaled lipid accumulation score: inactive: 0.063

## CCC[C@@H]1C[C@@H](C(=O)N[C@@H]([C@H]2O[C@H](SC)[C@H](O)[C@@H](O)[C@H]2O)[C@H](C)Cl)N(C)C1 [Clindamycin]
[2]
  scaled lipid accumulation score: inactive: ≤ 0
[1]
  scaled lipid accumulation score: inactive: ≤ 0

## CCC[C@@H]1C[C@@H](C(=O)N[C@@H]([C@H]2O[C@H](SC)[C@H](O)[C@@H](O)[C@H]2O)[C@H](C)Cl)N(C)C1 [Clindamycin hydrochloride]
  scaled lipid accumulation score: inactive: ≤ 0

## CCC[C@@H]1C[C@@H](C(=O)N[C@@H]([C@H]2O[C@H](SC)[C@H](O)[C@@H](O)[C@H]2O)[C@H](C)Cl)N(C)C1 [Clindamycin HCl]
[2]
  scaled lipid accumulation score: inactive: 0.031
Library stock concentration: 4.7 mM
  scaled lipid accumulation score: inactive: ≤ -0.006
[1]
  scaled lipid accumulation score: inactive: ≤ 0

## O=C(N[C@H](CO)[C@H](O)c1ccc([N+](=O)[O-])cc1)C(Cl)Cl [Chloramphenicol]
  scaled lipid accumulation score: inactive: 0.009
[2]
  scaled lipid accumulation score: inactive: ≤ 0
Library stock concentration: 6.2 mM
  scaled lipid accumulation score: inactive: 0.005 and inactive: ≤ -0.001
[1]
  scaled lipid accumulation score: inactive: ≤ 0

## O=C(O)CCNC(=O)c1ccccc1 [Betamipron]
[2]
  scaled lipid accumulation score: inactive: ≤ 0
[1]
  scaled lipid accumulation score: inactive: ≤ -0.001 and inactive: 0.015

## CCCCC[C@H](O)/C=C/[C@H]1C(=O)C[C@H](O)[C@@H]1CCCCCCC(=O)O [Prostaglandin D1]
[3]
  scaled lipid accumulation score: inactive: 0.018

## NC/C=C/C(=O)O [(E)-4-amino-2-butenoic acid]
[1]
  scaled lipid accumulation score: inactive: ≤ 0

## CCCCCC(=O)CC[C@@H]1[C@@H](C/C=C\CCCC(=O)O)[C@@H](O)C[C@H]1O [13,14-dihydro-15-keto Prostaglandin F2.alpha.]
[3]
  scaled lipid accumulation score: inactive: ≤ 0

## C=C1/C(=C\C=C2/CCC[C@]3(C)[C@@H]([C@H](C)CCCC(C)C)CC[C@@H]23)C[C@@H](O)C[C@@H]1O [Alfacalcidol]
[2]
  scaled lipid accumulation score: inactive: ≤ 0
Library stock concentration: 5 mM
  scaled lipid accumulation score: inactive: ≤ -0.006

## CCN(CC)CCOC(=O)c1cc(Cl)c(N)cc1OC [SDZ-205,557 hydrochloride]
[1]
  scaled lipid accumulation score: inactive: 0.051

## CCN(CC)CCOC(=O)c1cc(Cl)c(N)cc1OC [SDZ 205-557 hydrochloride]
[1]
  scaled lipid accumulation score: inactive: 0.003

Source: the supplement of paper PMC9135407
